# “And” between values parts separate entries of the source, which are not always exact repeats. Identical values can stand only once. Hit rate of the full screen: of about 420,000 compounds, about 64,000 (15%) were called active. This list was built around the results that the source calls inconclusive (neither active nor inactive); the mix of calls is not that of the screen. The call rests on the fitted dose curve; in most records, active means well fitted inhibition curve with a large enough effect; inconclusive means small, poorly fitted or top-dose-only effect; inactive means flat fitted curve, though single readings scatter. Potencies of inconclusive entries are left out as doubtful fits.
# Assay: qHTS for Inhibitors of human tyrosyl-DNA phosphodiesterase 1 (TDP1): qHTS in cells in absence of CPT; further: nearly all actives have a fitted effect of over 55% in size
# Details: DT40 Tdp1-/- hTDP1 cells, no CPT, ATP luminescence, 48 h; activity change, negative = growth inhibition: at 46.2 µM (top of the series) unless noted
# Summary of the method: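 Growth kinetics read by CellTiter-Glo luminescence after ≥48 hr at 37 °C. Cells: DT40 Tdp1-/- stably carrying human TDP1, 400 per well, compound exposure in the absence of CPT (DMSO vehicle).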
# On the % scale 0 is the no-effect control and ±100 the full control effect; potency means the concentration at half of the fitted maximal effect; tags describe the fitted curve by direction and shape.
Structure (SMILES),Potency,"activity change, negative = growth inhibition"
CCCc1nnc2n1N=C(c1ccc(C)cc1)CS2,"inconclusive [inhibitor, single point]",–
Cc1nc2cc(-c3cccc(F)c3)nn2c(C)c1CCC(=O)NCCc1ccccc1,"inconclusive [inhibitor, single point]",–
C=CCNC(=O)CN1C(=O)CSc2ccc(S(=O)(=O)N3CCOCC3)cc21,"inconclusive [inhibitor, single point]",–
Cn1nc(C(=O)NCC2COc3ccccc3O2)c2ccccc2c1=O (stereo not given),active: 20.6 µM,–
CCOC(=O)C(NC(=O)c1ccccc1)(OCc1ccccc1)C(F)(F)F (stereo not given),"inconclusive [inhibitor, single point]",–
Cc1cn2nc(N)c3ccccc3c2n1,–,inactive: 18.3%
O=C(Nc1ccc(-c2ccco2)cc1)C1CCCN(Cc2ccc(CO)o2)C1 (stereo not given),–,inconclusive: -31.2% [inhibitor]
Cc1ccccc1C(=O)N1CCC(C(=O)Nc2ccccn2)CC1,–,inactive: 1.55%
O=C1CSC(c2cn(-c3ccccc3)nc2-c2ccccc2)N1Cc1ccco1 (stereo not given),active: 18.4 µM,–
Cc1ccc(S(=O)(=O)N2CCN(C(C)C(=O)NCC(C)c3ccccc3)CC2)cc1 (stereo not given),active: 23.1 µM,–
Cc1ccc(C)c(-n2[nH]c3c4c(ccc3c2=O)C(=O)c2ccccc2C4=O)c1,"inconclusive [inhibitor, single point]",–
Cn1c(=O)c2sccc2n2c(CCCC(=O)Nc3ccc(Oc4ccccc4)cc3)nnc12,active: 16.4 µM,–
CCNC(=O)C1(C)CCCN(Cc2csc(-c3ccccc3)n2)C1 (stereo not given),"inconclusive [inhibitor, partial curve]",–
COc1ccccc1/C=N/NC(=O)c1nnn(-c2nonc2N)c1-c1ccccc1,–,inactive: -14.5%
Cc1ccc(NC(=O)C2c3ccccc3-c3ccccc32)cc1,"inconclusive [inhibitor, single point]",–
COc1ccc2nc(NC(=O)CCc3ccc(OC)c(OC)c3)sc2c1,"inconclusive [inhibitor, partial curve]",–
CCOC(=O)Oc1c(OC)cc(C(=O)O[C@@H]2C[C@@H]3CN4CCc5c([nH]c6cc(OC)ccc56)[C@H]4C[C@@H]3[C@H](C(=O)OC)[C@H]2OC)cc1OC,active: 10.1 µM and active: 13 µM,–
Cn1c(SCC(=O)N/N=C/C=C/c2ccccc2[N+](=O)[O-])nc2ccccc21,–,inactive: -48.3%
CN(CC(=O)Nc1cccc(F)c1)C(=O)c1sc2ccccc2c1Cl,"inconclusive [inhibitor, single point]",–
Cc1ccc(C)c(NC(=O)C2CCN(S(=O)(=O)c3c(C)noc3/C=C/c3cccs3)CC2)c1,"inconclusive [inhibitor, single point]",–
CCOc1ccc(CNc2ccc(S(N)(=O)=O)cc2)cc1,"inconclusive [inhibitor, single point]",–
O=C(c1cc2n(n1)C(C(F)(F)F)CC(c1ccc(Cl)cc1)N2)N1CCCC1 (stereo not given),"inconclusive [inhibitor, single point]",–
Cc1ccc(-c2n[nH]c(=S)nc2-c2ccc(C)cc2)cc1,"inconclusive [inhibitor, partial curve]",–
Cc1cc(S(=O)(=O)N2CCCCCC2)c(Cl)cc1Cl,"inconclusive [inhibitor, partial curve]",–

Structure (SMILES),Potency,"activity change, negative = growth inhibition"
O=C(C[C@@H]1C=C[C@@H](NC(=O)Nc2cccc(F)c2)[C@@H](CO)O1)NCC1CCCCC1,–,inactive: -15.6%
O=C(Nc1cccc(S(=O)(=O)N2CCCC2)c1)c1ccco1,"inconclusive [inhibitor, single point]",–
CCCCc1nnc(SC(C)C(=O)Nc2nccs2)n1C (stereo not given),–,inactive: 2.83%
CC(C)CCc1noc(CN2CCN(CC(=O)NC(C)C)CC2)n1,active: 25.9 µM,–
Cc1cc(NC(=O)CSc2nnc(C(F)(F)F)n2C)no1,–,inactive: -9.31%
Cc1cccc(N2CCN(C(=O)c3cc4c(=O)[nH]c5ccccc5c4n3C)CC2)c1C,active: 18.4 µM,–
Nc1[nH]c(C(=O)c2ccccc2)c(-c2ccc(Cl)cc2Cl)c1C(=O)c1ccc(Cl)c(Cl)c1,"inconclusive [inhibitor, single point]",–
CCCOc1ccc(C(=O)NNC(=S)NC(=O)c2ccco2)cc1,active: 2.91 µM,–
O=C(c1ccco1)N(Cc1ccco1)c1ccc(O)cc1,"inconclusive [inhibitor, single point]",–
Cc1ccc(-c2nc(CS(=O)(=O)CC(=O)Nc3cc(F)ccc3F)c(C)o2)cc1,–,inconclusive: -30.7% [inhibitor]
COc1ccccc1C(=O)NCc1nc2cccnc2n1Cc1ccc(F)cc1,"inconclusive [inhibitor, single point]",–
COc1cccc(CNC(C)(C)CO)c1OCc1ccc(Cl)cc1,"inconclusive [inhibitor, single point]",–
COc1ccc(C(=O)c2c(NC(C)=O)sc3c2CCN(C(=O)OC(C)(C)C)C3)cc1,"inconclusive [inhibitor, single point]",–
CCc1c(C)c2ccc(O)c(CN3CCN(c4ccc(F)cc4)CC3)c2oc1=O,"inconclusive [inhibitor, single point]",–
Cc1nn(-c2ccccc2)c(N)c1N=Nc1cccnc1,"inconclusive [inhibitor, single point]",–
O=c1[nH]c2ccc(Cl)cc2c(-c2ccccc2)c1SC(=S)N1CCOCC1,"inconclusive [inhibitor, single point]",–
COCCn1c(C)cc(C(=O)COC(=O)/C=C/c2ccc(OC)cc2OC)c1C,"inconclusive [inhibitor, single point]",–
Cc1ccc(CNc2nc(CN3CCNC(=O)C3)nc3ccccc23)o1,–,inactive: -21.8%
COc1ccc(C)cc1S(=O)(=O)N1CCN(C(=O)c2ncoc2-c2ccc(F)cc2)CC1,–,inconclusive: -31% [inhibitor]
O=C(/C=C\Nc1ccccn1)c1ccc(Cl)cc1,"inconclusive [inhibitor, partial curve]",–
O=C(N/N=C/c1cccc(O)c1)c1ccc(COc2ccccc2Br)cc1,"inconclusive [inhibitor, single point]",–
CCCCC(=O)Nc1ccc(N2CCCC2)cc1,"inconclusive [inhibitor, partial curve]",–
COc1ccc(N2CCN(C(=O)C3CCCN(c4ncnc5c4nc4n5CCCCC4)C3)CC2)cc1 (stereo not given),active: 16.4 µM,–
CC(=O)c1cc(CC=C(C)C)c(O)c(CC=C(C)C)c1O,"inconclusive [inhibitor, single point]",–

Structure (SMILES),Potency,"activity change, negative = growth inhibition"
COc1ccc(CCNC(=O)CSc2nnnn2Cc2ccc3c(c2)OCO3)cc1OC,–,inconclusive: -35.5% [inhibitor]
CCOc1ccccc1NC(=O)CSc1nc2cccnc2n1C,"inconclusive [inhibitor, partial curve]",–
C/C(=N\Nc1ccc([N+](=O)[O-])cc1[N+](=O)[O-])C(C)C(C)C (stereo not given),"inconclusive [inhibitor, single point]",–
Fc1ccccc1CSCc1nc2ccccc2[nH]1,"inconclusive [inhibitor, single point]",–
COc1ccnc(CSC(N)=Nc2ccc(F)cc2)c1,"inconclusive [inhibitor, single point]",–
CCc1cccc(NS(=O)(=O)c2ccc3c(c2)CC(C)N3C(=O)C2CC2)c1 (stereo not given),active: 3.66 µM,–
O=C(/C=C/c1ccc(OCCCF)cc1)N1CCOCC1,–,inactive: 1.69%
O=C1C2=C(c3ccccc31)[N+](=O)C1CCCCC1N2[O-] (stereo not given),active: 14.6 µM,–
CCc1c(C)n([O-])c2c([n+]1=O)CCCCC2,–,inactive: 4.34%
CCSc1ccc(-c2cccc([N+](=O)[O-])c2)nn1,–,inactive: -18.7%
COc1ccc(S(=O)(=O)N2Cc3ccccc3CC2C(=O)Nc2cc(Cl)ccc2Cl)cc1 (stereo not given),"inconclusive [inhibitor, partial curve]",–
Fc1cccc(CSc2nnc3ccc(-c4ccncc4)nn23)c1,–,inactive: -0.226%
Cc1cc(/C=C(/C#N)c2nc3ccccc3[nH]2)c(C)n1-c1cccc([N+](=O)[O-])c1,active: 13 µM,–
CC(C)(C)OC(=O)N1CCC(NC(=O)c2[nH]c(C(F)(F)F)nc2-c2ccccc2)CC1,"inconclusive [inhibitor, partial curve]",–
CCN(CC)S(=O)(=O)c1ccc(-n2c(=O)c(C(C)C)c(C)n2C)cc1,"inconclusive [inhibitor, single point]",–
O=C(c1ccc(COc2ccc(Br)cc2)o1)N1N=C(C(F)F)CC1(O)C(F)F (stereo not given),"inconclusive [inhibitor, single point]",–
Cc1cccc(Nc2nnc(SC/C(O)=C(\C#N)c3nc4ccccc4[nH]3)s2)c1C,"inconclusive [inhibitor, single point]",–
CCOCN(C(=O)Cn1c(COC)nc2ccccc21)c1c(C)cccc1CC,"inconclusive [inhibitor, single point]",–
NC(=O)C1(Nc2ccc([N+](=O)[O-])cc2)CCCC1,"inconclusive [inhibitor, single point]",–
COc1ccc(C2C(=O)N(C3CCCCCC3)CC(=O)N2Cc2ccccc2)cc1OC (stereo not given),"inconclusive [inhibitor, single point]",–
Cc1ccc(NC(=O)C2CCCN2C(=O)c2cccs2)cc1C (stereo not given),–,inactive: -6.45%
Cc1c(C(=O)Nc2ccc(Cc3ccncc3)cc2)cccc1[N+](=O)[O-],"inconclusive [inhibitor, single point]",–

# Reference: PubChem BioAssay AID686978 (National Center for Advancing Translational Sciences (NCATS), 2013)
